Our source for the self-cleavage values is the RNAGym collection of RNA variant scans (doi:10.1093/nar/gkz1192).

Read counts are not given, so values of variants with three or more changes are uncertain.

First the molecules themselves.
B1: CPEB3 Ribozyme (parent)
chain: UAACAGGGGGCCACAGCAGAAGCGUUCACGUCGCAGCCCCUGUCAGAUUCUGGUGAAUCUGCGAAUUCUGCUGUAUAUCUC

In this series the parent is B1. Description: self-cleavage, relative activity (ratio to wild type); higher = more cleavage; in vitro, sequencing. The essentials: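 Barcoded CPEB3 ribozyme mutants, produced by rounds of error-prone PCR, self-cleaved while being transcribed with T7 RNA polymerase for 5 hours at 37°C and during a subsequent 15 min DNase I step before EDTA was added. Sequencing of template-switched cDNA on Illumina gave cleaved and total reads, and DNA sequencing assigned barcodes to variants. Each variant's relative activity is its cleaved/total read fraction divided by the unmutated ribozyme's fraction, averaged across three batches. A variant needed a minimum of 5 reads.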
For the variant A5U A20G A21U U60C U76C, the self-cleavage was 0.09.

In the case of A5U A13U C23U A47G, the self-cleavage turned out to be 0.21.

A5U A20G A56U: the self-cleavage came to 0.54.

As to A5U A13G C27U U54A U78A, the self-cleavage was determined as 0.14.

On to A5U A13U G36U U49C U78C, for which the self-cleavage was determined as 0.14.

On to A5U A13G C38G, for which the self-cleavage came out at 0.36.

With A5U A15G C37U A45C U78C, the self-cleavage stood at 0.07.

As for A5U A18G U80C, the self-cleavage stood at 1.02.

For the variant A5U A18U U48C U67C, the self-cleavage was 0.17.

For A5U A13U A18G A21C U80A, the self-cleavage came to 0.4.

Turning to A5U A13G U58A, the self-cleavage turned out to be 0.58.

For the variant A5U A13U G16A A18C U25C U80A, the self-cleavage came to 0.08.

Take A5U A18G U49A A56G U66C: the self-cleavage is 0.23.

As for A5U A15G U67C, the self-cleavage came out at 0.26.

Regarding A5U A18C C27U A77U, the self-cleavage is 0.24.

In the case of A5U A18G U25C C32U, the self-cleavage came out at 0.03.

A5U A13U U67C: the self-cleavage came to 0.27.

A5U A18G A47G U78C: the self-cleavage is 0.93.

With A5U A15G U25A U49C A64G, the self-cleavage was 0.41.

As for A5U A18U C34U A35G U58A U72G, the self-cleavage was 0.08.

As for A5U A15U C23U U41C A45G, the self-cleavage was 0.09.

With A5U A13U U25C A28G U54A, the self-cleavage was 0.47.

As for A5U A20G C32U A56U U67C, the self-cleavage came to 0.3.

A5U A18U C29G U31C U43C A77G: the self-cleavage is 0.03.

With A5U A20G A35U U51C, the self-cleavage worked out at 0.13.

Consider A5U A15G G30A U41A A64G U72A, for which the self-cleavage is 0.09.

As for A5U A18G C40A U43C, the self-cleavage was 0.12.

With A5U A18G U43C U72C, the self-cleavage amounted to 0.25.

For the variant A5U A15G C23U A64U U76A, the self-cleavage worked out at 0.31.

Take A5U A13G G33A U41A U54A: the self-cleavage turned out to be 0.35.

As to A5U A20G U43C, the self-cleavage was 0.68.

A5U A13U U80C: the self-cleavage is 1.21.

A5U A20G U25A A28G U49G A64G: the self-cleavage is 0.16.

Regarding A5U A20G U25A G53C A56G, the self-cleavage came out at 0.11.

As to A5U A18U A28G A45G A57G U78C U80C, the self-cleavage was 0.14.

A5U A13U A28G U54C U69A: the self-cleavage was determined as 0.1.

Consider A5U A13U U31C A45G U67C U80C, for which the self-cleavage came to 0.29.

With A5U A18G C29U U48G U78C, the self-cleavage stood at 0.25.

In the case of A5U A15G U41C U43C, the self-cleavage is 0.31.

A5U A15G U41C G52A U74G: the self-cleavage stood at 1.05.

In the case of A5U A13G U41C U48C A77G, the self-cleavage worked out at 0.21.

With A5U A15U A21G U26C U72C U76C C81U, the self-cleavage was 0.18.

Take A5U A18G U69A: the self-cleavage is 0.71.

In the case of A5U A18G A28G U41A, the self-cleavage amounted to 0.43.

Consider A5U A13U U25C A64G C71U, for which the self-cleavage was found to be 0.2.

Regarding A5U A18U U48C G52U, the self-cleavage came to 0.5.

On to A5U A20G U31C U51A U69C, for which the self-cleavage is 0.2.

For A5U A15U U25A A45U U72A, the self-cleavage is 0.16.

As for A5U A15G G22A U49A A56U U58C A64G, the self-cleavage worked out at 0.05.

As for A5U A18G U74C A75U U76A, the self-cleavage was 1.

A5U A13U A35G A64G: the self-cleavage was determined as 1.12.

Consider A5U A18G A28G U60A, for which the self-cleavage came to 0.63.

As to A5U A20G C34A U67C, the self-cleavage is 0.15.

A5U A15U U49A A64G U80A: the self-cleavage was found to be 0.69.

Consider A5U A13U A18G U25C A28U A64G, for which the self-cleavage stood at 0.24.

As for A5U A18U U26G U67C, the self-cleavage was 0.34.

As to A5U A13G U25C G30A U43G U60C G70C, the self-cleavage amounted to 0.07.

Consider A5U A15G C23U G33A A64G U78A, for which the self-cleavage turned out to be 0.7.

With A5U A13U U58C U80C, the self-cleavage came to 0.76.

Regarding A5U A13U U26A U60C, the self-cleavage was 0.7.

Regarding A5U A20G A45G U48C A57G U78C, the self-cleavage is 0.64.

As for A5U A18U A21G U80C, the self-cleavage is 0.09.

For the variant A5U A15G U25C A28U U41C A64C, the self-cleavage is 0.15.

In the case of A5U A13G C27U A35U A65U U72C U74C, the self-cleavage was 0.09.

As for A5U A15U A20G U25G U76A U78C, the self-cleavage was found to be 0.57.

Turning to A5U A20G A28U C29U U72A, the self-cleavage was 0.29.

Take A5U A18U C44U A56U A65G: the self-cleavage was found to be 0.1.

For A5U A13U A18G U54C U76C, the self-cleavage was 1.13.

Turning to A5U A13U U41C A45G, the self-cleavage came to 1.16.

Consider A5U A15G U25C, for which the self-cleavage was 0.57.

Take A5U A15G C37U U58C: the self-cleavage was determined as 0.23.

Regarding A5U A13U A18G C29U U41A U67C, the self-cleavage was 0.1.

As to A5U A20G G24A C50A U60C G70A U76C, the self-cleavage stood at 0.06.

Regarding A5U A18U U31C U49C G55C C59A A64G, the self-cleavage came to 0.05.

For A5U A15U U43C, the self-cleavage stood at 0.28.

Take A5U A13G U60A: the self-cleavage came to 0.19.

In the case of A5U A13U U41C G52U, the self-cleavage was determined as 1.2.

As to A5U A15U A20G U25G A45U U67C, the self-cleavage was determined as 0.08.

In the case of A5U A20G A35U U58A U72C U74C, the self-cleavage was 0.13.

Regarding A5U A18U A57G C71U, the self-cleavage amounted to 0.36.

On to A5U A13U U74C, for which the self-cleavage was 1.24.

Turning to A5U A13U A15C A56G, the self-cleavage amounted to 1.08.

Regarding A5U A13U A15G U41C U78C, the self-cleavage amounted to 0.6.
